Consider 45 compounds from paper PMC4336329 (PLoS ONE, 2015).

The campaign covered roughly 310,000 compounds. About 2,200 (0.71%) showed an effect of 50% or more. The effect is printed as a negative number. The list shows a part of the results.

For the experiment, the target named is human ether-à-go-go-related gene (hERG) potassium channel (human, UniProt Q12809). Briefly: primary screen, population patch clamp on CHO cells stably expressing hERG.
human ether-à-go-go-related gene (hERG) potassium channel, sequence (Q12809 whole entry, looked up): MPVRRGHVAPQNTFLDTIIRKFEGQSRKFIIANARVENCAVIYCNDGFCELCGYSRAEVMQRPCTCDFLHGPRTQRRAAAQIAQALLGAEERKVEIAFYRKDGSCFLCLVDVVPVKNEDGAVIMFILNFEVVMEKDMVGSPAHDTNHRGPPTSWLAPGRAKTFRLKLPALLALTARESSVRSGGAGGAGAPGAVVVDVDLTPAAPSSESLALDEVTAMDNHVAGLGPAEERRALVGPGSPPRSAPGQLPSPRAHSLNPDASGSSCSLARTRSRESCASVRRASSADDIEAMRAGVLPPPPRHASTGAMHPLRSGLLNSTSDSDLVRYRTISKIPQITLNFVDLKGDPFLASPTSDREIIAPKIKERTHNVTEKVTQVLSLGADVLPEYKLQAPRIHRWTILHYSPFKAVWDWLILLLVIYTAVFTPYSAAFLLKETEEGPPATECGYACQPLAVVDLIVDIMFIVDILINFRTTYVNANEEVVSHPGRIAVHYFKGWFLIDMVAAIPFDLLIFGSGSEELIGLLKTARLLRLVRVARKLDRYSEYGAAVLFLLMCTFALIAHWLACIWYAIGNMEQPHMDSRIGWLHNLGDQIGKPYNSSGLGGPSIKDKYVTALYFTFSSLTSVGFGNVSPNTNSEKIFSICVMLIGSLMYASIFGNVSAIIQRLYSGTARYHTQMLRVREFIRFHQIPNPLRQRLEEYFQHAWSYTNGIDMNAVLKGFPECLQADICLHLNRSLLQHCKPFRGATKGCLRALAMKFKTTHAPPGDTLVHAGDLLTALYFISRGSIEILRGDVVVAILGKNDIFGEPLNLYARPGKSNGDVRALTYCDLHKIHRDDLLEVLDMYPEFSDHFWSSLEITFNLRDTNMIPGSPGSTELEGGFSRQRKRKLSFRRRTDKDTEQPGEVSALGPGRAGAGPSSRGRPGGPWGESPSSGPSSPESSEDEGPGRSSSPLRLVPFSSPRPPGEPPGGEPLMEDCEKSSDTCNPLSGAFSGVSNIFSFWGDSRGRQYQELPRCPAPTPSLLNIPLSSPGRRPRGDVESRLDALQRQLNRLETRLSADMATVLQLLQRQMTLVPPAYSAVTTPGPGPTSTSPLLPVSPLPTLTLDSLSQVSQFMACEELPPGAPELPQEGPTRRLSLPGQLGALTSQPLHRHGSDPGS
Take `O=C(Nc1ccccc1)Nc1nncs1`: the “hERG current change (%, negative = inhibition) at 1uM” value is given as 4.35%.

Turning to `COc1cc(CNCc2cccs2)ccc1OCc1cccs1.Cl`, the “hERG current change (%, negative = inhibition) at 1uM” value is 5.22%.

As to `Cc1cc(=O)n2nc(-c3ccc(C(F)(F)F)cc3)sc2n1`, the “hERG current change (%, negative = inhibition) at 1uM” value is given as 9.84%.

For `CCOc1ccccc1C(=O)N1CCN(c2ccc(C(F)(F)F)cn2)CC1`, the “hERG current change (%, negative = inhibition) at 1uM” value is recorded as 12.5%.

For the compound `COc1ccccc1N(CC(=O)Nc1c(C)n(C)n(-c2ccccc2)c1=O)S(=O)(=O)c1ccc(C)cc1`, the “hERG current change (%, negative = inhibition) at 1uM” value came out at 7.05%.

As for `Cc1ccc(C(=O)Nc2c[nH]c(=O)[nH]c2=O)cc1`, the “hERG current change (%, negative = inhibition) at 1uM” value is listed as 14.7%.

In the case of `COc1ccc2c(c1)OC[C@H]1[C@H]2N2C(=O)c3cc(OC)c(OC)cc3NC(=O)[C@@]2(C)[C@H]1c1ccccc1`, the “hERG current change (%, negative = inhibition) at 1uM” value was 5.66%.

As for `C/C(=N\Nc1nc2ccc(Cl)cc2o1)c1ccccc1`, the “hERG current change (%, negative = inhibition) at 1uM” value is reported as 16.1%.

For the compound `Cc1cc(NC(=O)Cc2ccccc2C)no1`, the “hERG current change (%, negative = inhibition) at 1uM” value worked out at 10.2%.

As for `O=c1oc2cc(OCCO)ccc2c2c1CCCC2`, the “hERG current change (%, negative = inhibition) at 1uM” value is on record as 13.4%.

For `Cc1cccc(Nc2ccc(C(=O)N3CCOCC3)cn2)c1`, the “hERG current change (%, negative = inhibition) at 1uM” value was determined as 17.3%.

As for `O=C(COC(=O)CCCN1C(=O)c2cccc3cccc(c23)C1=O)Nc1ccc(Cl)cc1`, the “hERG current change (%, negative = inhibition) at 1uM” value is reported as 13.7%.

In the case of `Cc1ccc2[nH]c(=O)c(CN(CC3CCCO3)S(=O)(=O)c3c(C)ccc4nsnc34)cc2c1` (stereo not drawn), the “hERG current change (%, negative = inhibition) at 1uM” value was -2.14%.

Consider `COc1ccc(C(=O)NCC(c2cccs2)N2CCc3ccccc32)cc1OC` (stereo not drawn), for which the “hERG current change (%, negative = inhibition) at 1uM” value was -4.47%.

On to `CCn1c(=O)cc(N2CCN(C(=O)c3ccco3)CC2)[nH]c1=O`, for which the “hERG current change (%, negative = inhibition) at 1uM” value came out at 10.6%.

Regarding `Cc1cccc(C)c1-n1c(C)nn(CCOc2ccccc2)c1=O`, the “hERG current change (%, negative = inhibition) at 1uM” value is 4.63%.

Take `NC(=O)c1c(NC(=O)CSc2nc3c(c(C(F)(F)F)n2)CCc2ccccc2-3)sc2c1CCCC2`: the “hERG current change (%, negative = inhibition) at 1uM” value was 1.55%.

Regarding `OC(c1ccc(Cl)cc1Cl)C(Cc1cccnc1)n1cncn1` (stereo not drawn), the “hERG current change (%, negative = inhibition) at 1uM” value was -0.657%.

`Cc1ccc2nc(NC(=O)COC(=O)c3ccco3)sc2c1`: the “hERG current change (%, negative = inhibition) at 1uM” value was determined as 15.9%.

Take `CC1(C)CC(=O)C=C(c2cccc3c2sc2ccccc23)C1`: the “hERG current change (%, negative = inhibition) at 1uM” value was determined as 16.8%.

`O=C(Nc1nccs1)NC(C(F)(F)F)C(F)(F)F`: the “hERG current change (%, negative = inhibition) at 1uM” value was found to be 6.58%.

In the case of `CCCCN(C)C(=O)Cn1nc(Cc2ccncc2)c2ccccc2c1=O`, the “hERG current change (%, negative = inhibition) at 1uM” value worked out at 5.07%.

As for `Cc1nc(SCC(=O)N(CC(C)C)C2CCS(=O)(=O)C2)c2c(C)c(C)sc2n1` (stereo not drawn), the “hERG current change (%, negative = inhibition) at 1uM” value stood at 5.63%.

Turning to `CN(C)S(=O)(=O)c1cccc(C(=O)Nc2ccccc2[N+](=O)[O-])c1`, the “hERG current change (%, negative = inhibition) at 1uM” value is reported as 12.1%.

With `CC(C)CN1C(=O)C(=O)N(CC(=O)c2ccc[nH]2)C1=O`, the “hERG current change (%, negative = inhibition) at 1uM” value amounted to 14.2%.

For the compound `CCC(=O)N1CC(=O)Nc2ccc(Br)cc2C1c1ccccc1` (stereo not drawn), the “hERG current change (%, negative = inhibition) at 1uM” value is recorded as 1.55%.

For the compound `O=C1CC(c2ccco2)Cc2nc(N3CCc4ccccc4C3)ncc21` (stereo not drawn), the “hERG current change (%, negative = inhibition) at 1uM” value stood at 6.33%.

In the case of `COC(=O)CN1C(c2ccccc2)=Nc2ccc(Cl)cc2C1c1ccccc1` (stereo not drawn), the “hERG current change (%, negative = inhibition) at 1uM” value was -17.3%.

As for `CCCCOc1ccc(C(O)C(CN2CCCCC2)c2ccccc2)cc1` (stereo not drawn), the “hERG current change (%, negative = inhibition) at 1uM” value was -0.643%.

For the compound `O=C(NC(=S)N(CCCCO)C1CCCCC1)c1sc2ccccc2c1Cl`, the “hERG current change (%, negative = inhibition) at 1uM” value is listed as -0.926%.

Take `O=C(NCCS(=O)(=O)N1CCCC1)c1ccccc1`: the “hERG current change (%, negative = inhibition) at 1uM” value is on record as 9.78%.

`COC(=O)c1nnn(-c2cccc(Cl)c2)c1C(=O)OC`: the “hERG current change (%, negative = inhibition) at 1uM” value amounted to 9.98%.

As to `O=C(Nc1nccs1)C(Br)C(Br)c1ccccc1` (stereo not drawn), the “hERG current change (%, negative = inhibition) at 1uM” value was 13.9%.

`O=C(CC(C(=O)O)C1CCCO1)NCc1ccccc1` (stereo not drawn): the “hERG current change (%, negative = inhibition) at 1uM” value is recorded as 4.29%.

On to `CC(=O)Cc1nsc(NC(=O)c2oc(-c3ccccc3Cl)cc2C)n1`, for which the “hERG current change (%, negative = inhibition) at 1uM” value stood at 11.9%.

`CC(=O)N(CCC(c1ccco1)C(C)C)Cc1ccc(Cl)cc1` (stereo not drawn): the “hERG current change (%, negative = inhibition) at 1uM” value was -3.97%.

As to `Cc1cccc(CSc2nnc(N)n2-c2ccccc2)c1`, the “hERG current change (%, negative = inhibition) at 1uM” value is recorded as -4.62%.

`O=C1Nc2cc(Cl)c(Cl)cc2N(O)N1c1cccc(Cl)c1`: the “hERG current change (%, negative = inhibition) at 1uM” value turned out to be 16.2%.

Take `CSc1ncccc1C(=O)Nc1ccc(S(=O)(=O)Nc2nccs2)cc1`: the “hERG current change (%, negative = inhibition) at 1uM” value was 6.85%.

As to `COc1ccc(OC)c2sc(N(CCCN(C)C)C(=O)CCS(=O)(=O)c3ccccc3)nc12.Cl`, the “hERG current change (%, negative = inhibition) at 1uM” value was -29.7%.

With `COc1ccc(NS(=O)(=O)c2cc(NC(=O)c3ccccc3F)ccc2N2CCCC2)cc1`, the “hERG current change (%, negative = inhibition) at 1uM” value was found to be 16.3%.

Turning to `CC(=O)C1=C(O)C(=O)N(Cc2ccco2)C1c1ccccc1F` (stereo not drawn), the “hERG current change (%, negative = inhibition) at 1uM” value was 10%.

`Cc1nc(SCC(=O)c2ccc(F)cc2)n[nH]1`: the “hERG current change (%, negative = inhibition) at 1uM” value is on record as 12.4%.

As to `Cc1ccc(S(=O)(=O)N(C)C)cc1NC(=S)NC(C)CCCC(C)C` (stereo not drawn), the “hERG current change (%, negative = inhibition) at 1uM” value came to 8.26%.

`c1csc(-c2nn3c(Cn4cnc5ccccc54)nnc3s2)c1`: the “hERG current change (%, negative = inhibition) at 1uM” value was 12.6%.
